# In all, about 360,000 compounds went through this assay and about 17,000 (4.7%) were called active. This list was built around the results that the source calls inconclusive (neither active nor inactive); the mix of calls is not that of the screen. Cut-off read from the data, not from the text of the source: active = activity change below about -50%; inconclusive = mostly about -30% to -49%; inactive = weaker than that.
# Assay: qHTS for Inhibitors of Inflammasome Signaling: IL-1-beta AlphaLISA Primary Screen
# Conditions: THP-1 LPS/ATP IL-1B secretion, 16 h; at 57.5 µM, stronger effect = lower value
# Procedure, shortened: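 THP-1 cells pretreated 1 hr with compounds (up to 57.5 uM final), then stimulated with LPS (250 ng/mL final) plus ATP (1.25 mM final); secreted IL-1B measured by AlphaLISA after 16 hr, decreased signal indicating inhibition.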
# % is set by controls: 0 for no effect and ±100 for the full control effect.
row,SMILES,activity change
1,O=C(CN1CCC(n2nnc3cc(F)ccc32)CC1)Nc1ccccc1N1CCOCC1,inactive: -19%
2,Cc1cc(C(=O)Nc2ccc(F)cc2F)on1,inconclusive: -34%
3,CCOc1ccccc1N(CC(=O)Nc1ccccc1F)S(=O)(=O)c1ccccc1,inconclusive: -31.5%
4,CN1CCN(CCCNC(=O)c2cn(C3CCCCC3)c(=O)c3c2c2ccccc2n3C)CC1,inconclusive: -40.3%
5,COc1ccc(C2CC(c3cccc(Cl)c3)=NN2c2ccc(S(N)(=O)=O)cc2)cc1 (centres undefined),inconclusive: -47.8%
6,CN(C)CCC(=O)N1c2ccccc2Sc2ccc(Cl)cc21,active: -58.5%
7,CCOC(=O)[C@]12CCC=C1N(Cc1cccc3ccccc13)C(=O)[C@H](CC(=O)NCCC(C)C)C2,active: -54.9%
8,COc1ccc(OC)c(Nc2nc(NCCO)c3ccccc3n2)c1,active: -89.4%
9,Cc1cc(-n2c(C)cc(C(=O)CN3C(=O)NC4(CCCCC4C)C3=O)c2C)no1 (centres undefined),inconclusive: -34.1%
10,CC1(C(=O)Nc2ccc3[nH]ncc3c2)CCN1C(=O)Cc1ccc(-c2ccccc2)cc1 (centres undefined),inconclusive: -34.2%
11,COc1ccc2c(c1)c(=O)oc1cc(OCC(=O)NC3CCCCC3)ccc12,inconclusive: -35.9%
12,O=C(O)c1cc(O)ccc1N=Nc1ccccc1,inconclusive: -39.7%
13,COC(=O)c1ccc(Cn2c(C)c(C(=O)Nc3cccc(Oc4ccccc4)c3)sc2=O)o1,inconclusive: -31.5%
14,Cc1nnc(N2CCCC(C(=O)Nc3cc(F)ccc3F)C2)c2nn(-c3ccccc3)c(C)c12 (centres undefined),inactive: -16.6%
15,Cc1ccc(CC(=O)OC(C)C(=O)NC2CCCCC2C)cc1C (centres undefined),inactive: -21.6%
16,CC(C)N(Cc1nc(-c2ccccc2)no1)C(=O)C(Cl)(Cl)Cl,inconclusive: -31.1%
17,Nc1ccc2c(c1)C(=O)c1cc([N+](=O)[O-])ccc1-2,inconclusive: -30.9%
18,CNC(=S)N1N=C(c2ccccc2)CC1c1ccc(Br)cc1 (centres undefined),inconclusive: -32.3%
19,O=C(Nc1nc(-c2ccncc2)cs1)C1COc2ccccc2O1 (centres undefined),inconclusive: -40.7%
20,CCCCN(C(=O)CCC(=O)Nc1cc(C)on1)C(C(=O)NC1CCCC1)c1ccccc1C (centres undefined),inactive: -3.4%
21,COc1ccc(-c2sc3ccccc3c2-c2ccc(OCCN3CCOCC3)cc2)cc1,inconclusive: -35.3%
22,COc1ccc(S(=O)(=O)N2CCCCCC2)cc1C(=O)N(C)CCOc1ccc(Cl)cc1,inconclusive: -36.1%
23,CCCS(=O)(=O)NC(=O)C1(C)CCCN(C(=O)CCc2cccs2)C1 (centres undefined),inactive: 16.4%
24,CCc1ccc(N(CC(=O)Nc2nc3ccc(C)cc3s2)S(=O)(=O)c2c(C)noc2C)cc1,inconclusive: -33.9%
25,O=C(O)CN1C(=O)/C(=C\c2cc([N+](=O)[O-])ccc2OCc2ccccc2Cl)SC1=S,inactive: -0.29%
26,Cc1cc(N2CCCC2)nc2ccc(NC(=S)NCCCN3CCC(C)CC3)cc12,active: -140%
27,COc1ccc(CNC(=O)CN2CCN(S(=O)(=O)c3c(C)c(C)cc(C)c3C)CC2)cc1OC,inconclusive: -36.6%

row,SMILES,activity change
1,O=C(CCSc1ccc(Cl)cc1)N1CCCCCC1,inconclusive: -43.8%
2,C=CCNC(=S)Nc1sc2c(c1C(=O)OCC)CCN(C(=O)OCC)C2,inactive: -14%
3,COc1ccccc1C(=O)Nc1ccc(N2CCN(Cc3ccccc3)CC2)cc1,inconclusive: -32.8%
4,Cc1ccc(NC(=O)CN(C)C(=O)c2ccc(Cl)c([N+](=O)[O-])c2)cc1,active: -85.3%
5,COc1cc(-c2cnc3c(NC(C)=O)cc(-c4ccc(N5CCN(C)CC5)cc4)cn23)cc(OC)c1OC,active: -87.1%
6,Nc1ncnc(Oc2cccc(C(F)(F)F)c2)c1[N+](=O)[O-],inconclusive: -30.6%
7,CC(C)(C)NC(=S)Nc1ccc(Nc2ccccc2)cc1,inconclusive: -38.1%
8,Cc1nn(-c2ccc(N3CCCCC3)nn2)c(C)c1CCC(=O)Nc1cc(F)ccc1F,active: -80.7%
9,CC(=O)Nc1ccc(SC[C@H](CC(C)C)N2CCN(CC(C)C)CCC2=O)cc1,inconclusive: -32.9%
10,Cc1ccc(/C=C/C(=O)NC2CCCCCCC2)o1,active: -104%
11,CC1(C)CC(=O)C=C(c2ccc(-c3ccc(OC(F)(F)F)cc3)cc2)C1=O,inconclusive: -30%
12,CCc1c(C)nc(Nc2nc(C)c3cc(OC)ccc3n2)[nH]c1=O,inconclusive: -49.4%
13,COc1cc(CN2CCC(CO)(Cc3cccc(C(F)(F)F)c3)CC2)ccc1F,active: -52.3%
14,CCOc1ccc(C(=O)C[n+]2cccc3cc(C)ccc32)cc1,inconclusive: -41.4%
15,N#C/C(=N\Nc1ccc(Cl)cc1)C(=O)c1ccccc1,active: -52.3%
16,Cc1ccc(C)c(S(=O)(=O)N2CCN(C(=O)c3sccc3C)CC2)c1,inconclusive: -34.3%
17,CCc1cc2cc(C(=O)N3CCN(Cc4ccccc4)CC3)sc2s1,active: -84.7%
18,CC(C)(C)c1ccc(C(=O)N/C(=C/c2cccs2)C(=O)NCc2ccco2)cc1,active: -68.3%
19,CCCCC(=Nc1ccccc1OC)C1=C(O)CC(c2ccccc2)CC1=O (centres undefined),inactive: 11.7%
20,CCc1ccc(C(CNC(=O)c2ccc3c(=O)n(-c4ccccc4F)c(=S)[nH]c3c2)N(C)C)cc1 (centres undefined),active: -81.6%
21,CC(C)(C)[C@H]1COC(=O)CC/C=C\C[C@@H](CC(=O)N(CCO)Cc2ccccc2)C(=O)N1,inactive: -9%
22,COc1ccc(NCC(=O)Nc2ccc(C#N)cc2)cc1Cl,inconclusive: -30.8%
23,CCOC(=O)N(C)c1c(CC)nc2c(OCc3cc(Cl)cc(Cl)c3)cccn12,inconclusive: -38.5%
24,O=C(Cn1nnc(-c2ccccc2Cl)n1)NCc1ccc2c(c1)OCO2,inactive: -0.284%
25,O=C(N/N=C/c1ccc(Sc2nc3ccccc3[nH]2)o1)c1ccncc1,inactive: -5.31%
26,COc1ccc(-c2cnn3c4c(c(C)nc23)CCN4C2CCCC2)cc1OC,inconclusive: -35.7%
27,CC(C)CN(C(=O)COC(=O)/C=C/c1ccc(Cl)c(Cl)c1)c1c(N)n(Cc2ccccc2)c(=O)[nH]c1=O,inconclusive: -41.9%

# — PubChem BioAssay AID743279 (National Center for Advancing Translational Sciences (NCATS), 2014)
